Measurements reported in PubChem BioAssay AID445 (National Center for Advancing Translational Sciences (NCATS), 2006).
The campaign covered roughly 110,000 compounds. About 40 (0.04%) were called active. The inconclusive results got no clear call from the source; some entries with a clear call stand among them for comparison. The call rests on the fitted dose curve; in most records, active means well fitted curve in the direction sought with a large enough effect in the signal ratio (not every such curve was filed as active); inconclusive means small, poorly fitted or top-dose-only effect, or a change in a side signal; inactive means flat fitted curve, though single readings scatter; the % refers to the signal ratio. Potencies of inconclusive entries are doubtful fits and often do not repeat. The source holds several records for some structures; these can differ, active in one and inactive in another.

Assay: IkB Signaling;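 on IkBa stabilization activation: 0% = basal untreated cells and 100% = reference inhibitor full response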
Conditions: ABC-DLBCL IkBa-CBG/CBR dual luciferase ratio (green luciferase fused to IkBa over red control in OCI-Ly3 lymphoma cells), 4 h; IkBa stabilization activation: at 57.1 µM (top of the series), scaled: untreated 0%, proteasome inhibitor 100% unless noted
Source text: NIH Molecular Libraries Screening Centers Network [MLSCN]
NIH Chemical Genomics Center [NCGC]
Nuclear factor kappa-B (NF-kappa-B) plays an important role in normal B cell development and survival. Diffuse large B cell lymphoma (DLBCL) is the most commonly observed type of non-Hodgkin's lymphoma. Gene expression analysis has identified an activated B cell-like subtype of DLBCL (ABC-DLBCL) which expresses known NF-kappa-B target genes. […] However, targets upstream of IKK have been largely unexplored and so nodes upstream of IKK in the NF-kappa-B pathway remain untested due to the lack of chemical probes.
A cell-sensor assay for I-kappa-B-alpha stabilization was developed with NIH investigator Dr. R. Eric Davis in Dr. Louis M. Staudt's laboratory. The assay uses green (CBG68) and red (CBR) emitting beetle luciferases [Chroma-Glo(TM) developed by Promega Corp.] where the green luciferase is fused to I-kappa-B-alpha and the red luciferase is present in its native state. Both luciferase genes are stably present in the OCI-Ly3 human ABC DLBCL cell line, but their expression is under the control of tetracycline-inducible promoters. Following the addition of doxycycline to induce expression of the luciferases, the green luminescence in control cultures rises only slowly because the CBG fusion partner I-kappa-B-alpha is targeted by IKK activity for rapid degradation. In contrast, green luminescence rises rapidly in the presence of proteasome inhibitors or IKK inhibitors. The rise in red luminescence of CBR is not affected by proteasome or IKK inhibitors, and serves as normalization for cell number and nonspecific effects. Compounds were screened as a concentration-titration series that ranged from 57 uM to 0.7 nM.
NCGC Assay Protocol Summary:
Cells were seeded in 1536-well plates at 5000 cells/3ul in IMDM medium containing 0.5% FBS, w/o phenol red, L-glutamine, 25 mM HEPES, 3 mg/ml sodium bicarbonate. After centrifugation for 1 min. at 1000 rpm, 23 nl of compounds or DMSO were delivered to each well using a pin tool. Then 1ul 80ng/ml doxycycline was dispensed into white solid 1536-well plates and the plates were incubated at 37C/5% C02 in a cell incubator for 4 hrs. Then 4 ul Chroma-Glo luminescent substrate mix (Promega) was added to each well. The plate was incubated at R.T. for 10-15 min. The plates were measured on a ViewLux plate reader for green luminescence (540/20 nm filter) and red luminescence (618/8 nm filter). The green and red luminescent signals were corrected for red and green luminescence filter overlap using previously determined filter calibration constants (determined using the procedure outlined in the Promega Technical Manual). The %Activity was determined from the ratio of corrected green/red luminescent values. Green luminescent and ratio %Activity was determined by normalizing to the difference in signal between basal cells (0% Activity) and cells incubated with 10 uM of the proteasome inhibitor MG-132 (100% Activity). Red luminescent %Activity was normalized to the difference between red luminesence in basal cells (0%Activity) and zero luminescence (-100% Activity).
Concentration-response curves were fitted to the signals arising from the green luminescence (I-kappa-B-alpha-luciferase fusion; IkB-luc) and the red luminescence (unfused luciferase; luc) as well as the calculated ratio. The concentration-effect curves were then classified based on curve quality (r2), response magnitude and degree of measured activity. Compounds were then categorized based on their concentration-response curves for all three datasets (Ikb-luc, luc and ratio).
Keywords: IKK, I-kappa-B, IkB, IkBa, cytotoxicity, luminescence, MLSMR, MLSCN, NIH Roadmap, qHTS, NCGC
Potency means the concentration at half of the fitted maximal effect.

Row | SMILES | Potency | IkBa stabilization activation
1 | O=[As](O)(O)c1ccc(Cc2ccc([As](=O)(O)O)cc2)cc1 | inconclusive: 1.58 µM [rising, full curve] | –
2 | C=CC(=O)OCC(CC)CCCC (configuration not stated) | – | inactive
3 | Oc1cc(Cl)c(Cl)c(Cl)c1 | – | inconclusive: -7.22% [signal inhibitor]
4 | O=C1CCCN1CC#CCN1CCCC1 | – | inactive
5 | CCNC(C)(C)[C@@H](SS)c1ccc(Br)cc1 | – | inactive: 0.129% [at 11.4 µM, scaled: untreated 0%, proteasome inhibitor 100%]
6 | C[C@@]12CC[C@H](O)C[C@@H]1CC[C@H]1[C@H]2C[C@@H](O)[C@]2(C)[C@@H](C3=CC(=O)OC3)CC[C@@]12O | – | inconclusive: 5.99% [signal inhibitor] [at 11.4 µM, scaled: untreated 0%, proteasome inhibitor 100%]
7 | Cc1[nH]c2ccccc2c1C1=CCNCC1 | – | inactive
8 | COc1ccc(-n2c(/C=C/c3cccc(F)c3)nc3ccccc3c2=O)cc1Cl | – | inconclusive: 1.62% [signal inhibitor]
9 | Cc1cccc(CN2C(=O)CN=C(c3ccccc3)c3ccccc32)c1 | – | inconclusive: -1.74% [signal inhibitor]
10 | COc1cc([C@@H](O)CN)ccc1O | – | inactive
11 | CCCCCCn1c(N)c(C(=O)NCCN2CCOCC2)c2nc3ccccc3nc21 | – | inconclusive: -3.93% [signal inhibitor]
12 | Cn1ncnc2c(=O)n(C)c(=O)nc1-2 | inconclusive: 3.98 µM [rising, full curve] | –
13 | CN(C)C1(c2nnnn2CCOC(=O)Nc2ccc(Cl)cc2)CCCCC1 | – | inconclusive: 2.02% [signal inhibitor]
14 | CC(=O)[O-].CC(=O)[O-].O.O.[Cd+2] | active: 5.01 µM | –
15 | COc1cccc(C2SCC(=O)Nc3c2c(C)nn3-c2ccc(C)c(Cl)c2)c1OC (configuration not stated) | – | inconclusive: 2.02% [signal inhibitor]
16 | C[C@H]1CCC[C@H](O)CCCCCc2cc(O)cc(O)c2C(=O)O1 | – | inconclusive: 4.73% [signal inhibitor]

Row | SMILES | Potency | IkBa stabilization activation
17 | O=C(c1ccccc1)[C@H]1[C@H](c2ccccc2[N+](=O)[O-])N1C1CCCCC1 (some centres not stated) | active: 5.01 µM | –
18 | Oc1ccc2c3c1O[C@H]1c4c(c5ccccc5n4Cc4ccccc4)C[C@]4(O)[C@H](C2)N(CC2CC2)CC[C@@]314 | – | inconclusive: 0.377% [signal inhibitor]
19 | N#CC1=C(N)Oc2c(c(=O)oc3ccccc23)C1c1cccnc1 (configuration not stated) | – | inconclusive: 3.65% [signal inhibitor]
20 | O=c1c2ccccc2nc(/C=C/c2ccccc2F)n1-c1cccc(O)c1 | – | inconclusive: -0.274% [signal inhibitor]
21 | CCOc1ccc(-c2cc(C(=O)N3CCC4(CC3)OCCO4)c3ccccc3n2)cc1 | – | inactive
22 | Cc1cccc(-c2nn3c(=O)cc(CN4CCN(C(=O)COc5ccc(Cl)cc5)CC4)nc3s2)c1 | – | inconclusive: 3.22% [signal inhibitor]
23 | CN(N=O)c1cc(O)ccc1O | – | inactive
24 | CO[C@@H](C)[C@](O)(C(=O)OC1=CCN2CC[C@H](O)[C@H]12)C(C)C | – | inactive: 3.15% [at 11.4 µM, scaled: untreated 0%, proteasome inhibitor 100%]
25 | O=S1(=O)N(Cc2ccccc2Cl)CCCN1Cc1ccccc1Cl | – | inconclusive: 2.68% [signal inhibitor]
26 | COc1ccc(NC(=O)CCc2nc(C3=CCN(Cc4cccc(Cl)c4)CC3)no2)c(OC)c1 | – | inconclusive: 0.772% [signal inhibitor]
27 | C[C@H]1CCCC=CC2C[C@H](O)C[C@@H]2[C@H](O)/C=C\C(=O)O1 (some centres not stated) | – | inconclusive: 0.842% [signal inhibitor]
28 | Cc1ccccc1OCC(=O)N1CCN(CCc2ccccn2)CC1 | – | inconclusive: 1.32% [signal inhibitor]
29 | C[C@@H](Cc1ccccc1)NCCC(c1ccccc1)c1ccccc1 | – | inactive
30 | CC(C)CC(C)Nc1ccc(Nc2ccccc2)cc1 (configuration not stated) | – | inconclusive: -2.2% [signal inhibitor]
31 | CN(C)c1ccc(N=Nc2ccccc2)cc1 | inconclusive: 25.1 µM [signal inhibitor, partial curve] | –
32 | Cc1ccccc1-n1c(/C=C/c2c(C)[nH]c3ccccc23)nc2ccccc2c1=O | inconclusive: 7.94 µM [signal inhibitor, partial curve] | –
